Measured values reported in PubChem BioAssay AID624417 (National Center for Advancing Translational Sciences (NCATS), 2012).
Screen size: about 410,000 compounds; about 6,400 (1.6%) were called active. The shares of active, inactive and inconclusive entries below differ from those in the screen. The call rests on the fitted dose curve; in most records, active means well fitted inhibition curve with a large enough effect; inconclusive means small, poorly fitted or top-dose-only effect; inactive means no such curve, though single readings can be large or run the other way. No potency is given beside an inconclusive call; the fits are too rough.

Molecular target: Glucagon-like peptide 1 receptor (Homo sapiens) (UniProt P43220)
Assay: qHTS of GLP-1 Receptor Inverse Agonists (Inhibition Mode); further: nearly all actives have a fitted effect of over 55% in size
Conditions: HEK293 GLP-1R CRE-luciferase, luminescence, 24 h, GLP-1R form is constitutively active; activity change, negative = inhibition: at 38.3 µM (top of the series) unless noted
In short: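 Constitutively active GLP-1R drives a cAMP-responsive luciferase in stably transfected HEK293 cells; test compounds are added after overnight (12 h) attachment and left 24 hr, and signal loss in luminescence marks inhibition.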
On the % scale 0 is the no-effect control and ±100 the full control effect; potency means the concentration at half of the fitted maximal effect; tags describe the fitted curve by direction and shape.

UniProt P43220, sequence (P43220 whole entry, looked up): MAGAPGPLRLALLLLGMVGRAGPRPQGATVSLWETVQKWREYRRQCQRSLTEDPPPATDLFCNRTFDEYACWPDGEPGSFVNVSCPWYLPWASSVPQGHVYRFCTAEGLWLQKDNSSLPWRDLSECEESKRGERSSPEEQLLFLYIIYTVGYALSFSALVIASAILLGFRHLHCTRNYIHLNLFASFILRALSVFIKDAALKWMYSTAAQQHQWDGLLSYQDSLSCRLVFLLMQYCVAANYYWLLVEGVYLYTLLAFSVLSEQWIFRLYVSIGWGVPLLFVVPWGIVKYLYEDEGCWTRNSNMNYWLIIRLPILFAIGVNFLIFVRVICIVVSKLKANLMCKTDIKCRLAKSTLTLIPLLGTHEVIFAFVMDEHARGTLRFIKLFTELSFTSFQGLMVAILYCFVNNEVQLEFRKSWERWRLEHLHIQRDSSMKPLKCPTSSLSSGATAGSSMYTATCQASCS

SMILES	Potency	activity change, negative = inhibition
COc1ccc(NC(=O)Nc2nc(C(N)Cc3ccc(C(F)(F)F)cc3)cs2)cc1 (centres undefined)	inconclusive [inhibitor, partial curve, poor fit]	–
CN=Cc1c(NC)nc2c(C)cccn2c1=O	–	inactive: 18.4%
O=C(COc1ccccc1[N+](=O)[O-])N(Cc1ccccc1)c1ccccn1	inconclusive [inhibitor, partial curve, poor fit]	–
CCCC(=O)Nc1ccccc1-c1nnn(CC(=O)Nc2ccc(OCC)cc2)n1	inconclusive [inhibitor, full curve, poor fit]	–
CCCCCCn1c(=O)[nH]c2nc3cc(N)ccc3nc2c1=O	inconclusive [inhibitor, full curve, poor fit]	–
COc1cccc(CNc2nc3ccccc3n2CCN2CCCCC2)c1OC	inconclusive [inhibitor, partial curve, poor fit]	–
CC1(C)C2CC=C(/C=N/NC(=O)c3ccc(O)cc3)C1C2 (centres undefined)	inconclusive [inhibitor, single point]	–
Cc1ccc(-c2nn(-c3ccccc3)cc2C(=O)Nc2cccc(S(=O)(=O)NC3=NCCC3)c2)cc1	inconclusive [inhibitor, partial curve, poor fit]	–
OC(c1cccc(Cl)c1)c1ncc(-c2ccccc2Cl)[nH]1 (centres undefined)	inconclusive [inhibitor, partial curve, poor fit]	–
C=CCN(c1ccccc1)S(=O)(=O)c1cccc(C(=O)NC2CCC(O)CC2)c1 (centres undefined)	inconclusive [inhibitor, single point]	–
c1ccc(-c2c3ccccc3nc3[nH]c4ccccc4c23)cc1	inconclusive [inhibitor, single point]	–
CCc1nc2ccc(C(=O)NCc3ccc4c(c3)OCO4)cn2c1N(C)Cc1cccs1	inconclusive [inhibitor, single point]	–
Cc1ccc(C)c(CSc2nc3ccncc3n2Cc2nc(-c3ccccc3Cl)oc2C)c1	inconclusive [inhibitor, single point]	–
Cc1ccc2nc(-c3ccc(F)cc3)c(Cc3cccc(Cl)c3)n2c1	inconclusive [inhibitor, single point]	–
CN(c1ccccc1)c1ccc(/C=N/N2CCOCC2)cc1	inconclusive [inhibitor, single point]	–
O=C(CN1C(=O)c2ccccc2C1=O)NC1CCS(=O)(=O)C1 (centres undefined)	–	inactive: 26.4%
CCOc1ccc(-n2ccnc(SCC(=O)NCCc3ccccc3)c2=O)cc1	inconclusive [inhibitor, partial curve, poor fit]	–
COc1cccc(CNC(=O)Cc2ccc(-c3ccccc3)cc2)c1	inconclusive [inhibitor, partial curve, poor fit]	–
COc1ccc(C(=O)C[n+]2cn(C(F)F)c3ccccc32)c(F)c1	inconclusive [inhibitor, single point]	–
Cc1ccc(-n2ncc(Cl)c2C(=O)NCc2ccccc2)cc1	inconclusive [inhibitor, single point]	–
COc1cccc(CNC(=O)c2c3c(nc4ccccc24)C(=O)N(C2CCCCC2)C3)c1	inconclusive [inhibitor, single point]	–
COc1ccc(-c2cc3ccccc3n2CC(O)CN2CCOCC2)cc1 (centres undefined)	inconclusive [inhibitor, partial curve, poor fit]	–

SMILES	Potency	activity change, negative = inhibition
Cc1ccc(C(=O)c2ccccc2C(=O)OCC(=O)N2CC(C)CC(C)C2)cc1 (centres undefined)	inconclusive [inhibitor, partial curve]	–
Cn1cc(C(=O)NCc2ccccc2)c(=O)c2cc(S(=O)(=O)N3CCCCCC3)ccc21	–	inactive: 15.4%
CC(C)C1=CC(=Nc2ccc(S(N)(=O)=O)cc2)C=C(C(C)C)C1=O	inconclusive [inhibitor, single point]	–
COCc1ccc(-c2c(-c3ccc(OC)cc3)oc(=O)c3cc(OC)c(OC)cc23)cc1	inconclusive [inhibitor, single point]	–
CCOc1ccc(OCCCC(=O)ON=C(N)c2ccccc2C)cc1	inconclusive [inhibitor, single point]	–
COC(=O)c1sc(-c2cccs2)cc1NC(=O)/C=C/C(=O)O	inconclusive [inhibitor, full curve, poor fit]	–
Cc1cc(O)c(-c2cc(O)c(C)cc2O)cc1O	inconclusive [inhibitor, single point]	–
N#Cc1c(NC(=O)C2CC2)sc2c1CCCCC2	inconclusive [inhibitor, partial curve, poor fit]	–
O=C(Nc1ccc(Cl)cn1)c1cccc2c(Br)cccc12	inconclusive [inhibitor, full curve]	–
CCOC(=O)C1=C(CNCCc2ccc(Cl)cc2)NC(=O)NC1c1ccc2c(c1)OCO2 (centres undefined)	active: 6.31 µM	–
CCc1nn(CC(=O)NC2CC2)c(=O)c2cc3ccccc3n12	–	inactive: 13.2%
CCOC(=O)N(C)C[C@@H]1OCc2ccccc2-c2c(n(C)c3ccccc23)C(=O)N([C@H](C)CO)C[C@H]1C	inconclusive [inhibitor, partial curve, poor fit]	–
COc1ccc(S(=O)(=O)NCc2cccnc2)cc1NC(=O)c1ccccc1C	–	inactive: -8.99%
CC1CCN(c2nc3ccc(C(=O)NCc4ccc(Cl)cc4)cc3s2)CC1	inconclusive [inhibitor, full curve, poor fit]	–
C/C(Cn1nnc([N+](=O)[O-])n1)=N\NC(=O)c1ccccc1O	–	inactive: 8.08%
Cc1ccc(OCCCCCN2CCOCC2)c(Cl)c1	inconclusive [inhibitor, partial curve, poor fit]	–
CCN(CC)CCn1c2c(c(SCC(=O)Nc3ccc4c(c3)OCCO4)nc1=O)CCCC2	inconclusive [inhibitor, single point]	–
Cc1ccc(NC(=O)CN(C)C(=O)c2ccc(COc3ccccc3)cc2)cc1	inconclusive [inhibitor, partial curve, poor fit]	–
COc1ccc(C2CC(=O)N(CC(=O)Nc3ccc(C(F)(F)F)cc3)c3ccccc3S2)cc1 (centres undefined)	–	inactive: 4.11%
COc1ccc(C(=O)N2CCN(c3ccccc3OC)CC2)cc1	–	inactive: -0.425%
O=C(CSc1nnnn1-c1cccc2c1CCCC2)N1CCCCC1	inconclusive [inhibitor, partial curve, poor fit]	–
COc1ccc(N2CCN(C(=O)CCCN3C(=O)c4cccc5cccc(c45)C3=O)CC2)cc1	inconclusive [inhibitor, partial curve]	–

SMILES	Potency	activity change, negative = inhibition
Cc1cccc(C)c1NC(=O)CN(C)S(=O)(=O)c1ccc2c(c1)n(C)c(=O)c(=O)n2C	–	inactive: 3.52%
CCN(CC)CCNC(=O)c1ccc2c(c1)N(Cc1ccccc1)C(=O)c1ccccc1S2=O (centres undefined)	–	inactive: -18.4%
Cc1ccc2c(CNC3CCC(C)CC3)c(C(=O)O)n(Cc3cccc(F)c3)c2c1 (centres undefined)	–	inactive: -12%
O=C1Cc2ccccc2C(=O)N1Nc1ccccc1	inconclusive [inhibitor, single point]	–
Cc1cccc(C(=O)N(Cc2nc(-c3ccc(Cl)cc3)no2)C(C)C)c1	inconclusive [inhibitor, partial curve, poor fit]	–
Cc1cc(C)cc(-n2ncc3c2CCCC3NC(=O)CCN2Cc3ccccc3C2=O)c1 (centres undefined)	inconclusive [inhibitor, partial curve, poor fit]	–
FC(F)(F)c1cc(-c2ccccc2)nc(NCc2cccs2)n1	inconclusive [inhibitor, single point]	–
CCn1nc(C)c(C(=O)Nc2cc(Oc3cc(C)cc(C)c3)cc([N+](=O)[O-])c2)c1C	inconclusive [inhibitor, partial curve, poor fit]	–
Fc1cccc2sc(Nc3nc4ccccc4s3)nc12	inconclusive [inhibitor, single point]	–
COc1ccc2c(-c3ccccc3)cc(SCC(=O)N(C)C3CCS(=O)(=O)C3)nc2c1 (centres undefined)	inconclusive [inhibitor, partial curve, poor fit]	–
Cc1ccc(C)c2[nH]c(=O)c(CN(Cc3ccco3)C(=S)NCC3CCCO3)cc12 (centres undefined)	inconclusive [inhibitor, single point]	–
COCC(=O)N(Cc1nc2ccccc2c(=O)[nH]1)Cc1cccs1	–	inactive: -4.44%
CCN(C(=O)/C=C/c1ccc(OC)cc1)C1CCCCC1	inconclusive [inhibitor, single point]	–
CCOC1OC(=O)C(Cl)=C1Nc1ccc(C)cc1 (centres undefined)	inconclusive [inhibitor, single point]	–
CCOC(=O)c1c2c(n(-c3ccc(OC)cc3)c1C)C(=O)C(=O)c1ccccc1-2	inconclusive [inhibitor, full curve, poor fit]	–
Cc1ccnc(NC(=O)c2cccc(S(=O)(=O)N3CCOCC3)c2)c1	–	inactive: -23.6%
O=C(NCc1cccnc1)C1CC(c2ccc(Cl)c(Cl)c2)=NO1 (centres undefined)	inconclusive [inhibitor, partial curve]	–
CCOC(=O)c1cccc(NC(=O)CCc2nc(-c3ccc(C)cc3)no2)c1	–	inactive: -18.3%
O=C(CN1CCOCC1)n1c2ccccc2c2ccccc21	inconclusive [inhibitor, partial curve]	–
Cc1oc(-c2cccc(Cl)c2)nc1CSCC(=O)O	inconclusive [inhibitor, single point]	–
